Screen size: about 350,000 compounds; about 31,000 (8.9%) were called active. This list was built around the results that the source calls inconclusive (neither active nor inactive); the mix of calls is not that of the screen. Calls follow the shape of the dose curve; as a rule, active = well fitted inhibition curve with a large enough effect; inconclusive = small, poorly fitted or top-dose-only effect; inactive = no such curve, though single readings can be large or run the other way. Potencies beside an inconclusive call are fits to weak or partial responses and may not hold up.
Molecular target: Histone-lysine N-methyltransferase EHMT2 (Homo sapiens) (UniProt Q96KQ7)
Test: qHTS Assay for Inhibitors of Histone Lysine Methyltransferase G9a; also: nearly all actives have a fitted effect of over 75% in size
Details: G9a H3K9 monomethylation, AlphaScreen, 2 h; activity, negative = inhibition: at 59 µM (top of the series) unless noted
How it was run: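 Readings reflect AlphaScreen signal from monomethyl-H3K9 antibody detection. HMT at 20 nM; substrate b-H3K9 500 nM; cofactor SAM 20 uM; 2 h RT reaction; compounds tested as titrations in qHTS with 15 min preincubation.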
% is scaled to controls: 0 for no effect and ±100 for the full control effect; potency is read from the fitted curve at half-maximal effect; tags tell the direction and shape of the fitted curve.

Chain of UniProt Q96KQ7 (Q96KQ7 whole entry, looked up): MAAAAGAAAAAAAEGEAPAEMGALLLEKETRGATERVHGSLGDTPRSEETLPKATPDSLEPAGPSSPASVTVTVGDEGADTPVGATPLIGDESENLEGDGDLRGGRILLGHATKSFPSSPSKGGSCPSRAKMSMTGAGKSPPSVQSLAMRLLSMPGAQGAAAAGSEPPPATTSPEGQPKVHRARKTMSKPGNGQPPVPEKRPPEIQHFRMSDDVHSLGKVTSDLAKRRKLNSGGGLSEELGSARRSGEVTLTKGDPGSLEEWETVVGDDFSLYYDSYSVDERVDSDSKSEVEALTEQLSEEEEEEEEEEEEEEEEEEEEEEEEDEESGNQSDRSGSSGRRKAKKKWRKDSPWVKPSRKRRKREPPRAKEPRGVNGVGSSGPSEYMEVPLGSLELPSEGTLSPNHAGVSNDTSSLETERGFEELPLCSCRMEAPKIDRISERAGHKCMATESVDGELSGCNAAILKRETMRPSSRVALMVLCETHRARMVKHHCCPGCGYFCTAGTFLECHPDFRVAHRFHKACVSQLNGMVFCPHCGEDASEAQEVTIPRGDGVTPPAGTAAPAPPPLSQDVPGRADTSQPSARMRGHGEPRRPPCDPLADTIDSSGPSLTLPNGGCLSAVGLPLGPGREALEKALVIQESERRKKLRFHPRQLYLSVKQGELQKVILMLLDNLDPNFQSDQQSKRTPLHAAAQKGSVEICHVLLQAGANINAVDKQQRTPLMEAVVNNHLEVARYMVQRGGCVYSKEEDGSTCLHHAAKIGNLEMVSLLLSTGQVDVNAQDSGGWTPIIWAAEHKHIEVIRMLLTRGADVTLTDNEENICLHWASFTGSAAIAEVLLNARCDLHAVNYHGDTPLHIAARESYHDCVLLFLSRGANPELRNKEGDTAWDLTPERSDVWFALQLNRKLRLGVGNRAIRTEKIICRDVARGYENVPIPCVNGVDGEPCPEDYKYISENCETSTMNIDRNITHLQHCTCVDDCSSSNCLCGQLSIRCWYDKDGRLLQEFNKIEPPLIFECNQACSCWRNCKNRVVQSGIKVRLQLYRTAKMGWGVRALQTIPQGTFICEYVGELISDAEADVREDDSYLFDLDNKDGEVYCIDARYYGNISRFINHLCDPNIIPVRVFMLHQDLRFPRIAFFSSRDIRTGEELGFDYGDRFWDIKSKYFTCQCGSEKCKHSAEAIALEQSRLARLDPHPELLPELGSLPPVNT

Q: How did the Potency turn out when `O=S(=O)(c1ccc(-c2csc(=Nc3ccc(OC(F)(F)Cl)cc3)n2CCCO)cc1)N1CCCC1` was run?
A: The Potency was active: 1 µM.

Q: With `S=C(Nc1cccc2ccccc12)N1CCN(c2ncccn2)CC1` as the compound, how does the Potency read?
A: Its Potency is inconclusive: 89.1 µM [inhibitor, partial curve, poor fit].

Q: With `CCN(CC)C(=O)CSc1nc2cc3c(cc2c(=O)n1Cc1ccc(OC)cc1)OCO3` as the compound, how does the Potency read?
A: The Potency was inconclusive: 25.1 µM [inhibitor, single point].

Q: `CCCN(CC(=O)Nc1cc(Cl)ccc1Cl)C(=O)CN1C(=O)C2CCCCC2C1=O` (stereo not drawn) was tested. Which Potency did it give?
A: Its Potency is inconclusive: 79.4 µM [inhibitor, partial curve, poor fit].

Q: Which Potency does the source give for `CCS(=O)(=O)Nc1ccc2c(c1)OCO2` here?
A: Its Potency is “inactive”.

Q: `CC(=O)N1CCC(C(=O)N2CCN(S(=O)(=O)c3ccc(F)cc3)CC2)CC1` was tested. Which Potency did it give?
A: The Potency was “inactive”.

Q: For `COc1ccc(C#Cc2ccc3c(=O)c4ccccc4n(C)c3c2)cc1`, which Potency is on record?
A: Its Potency is inconclusive: 89.1 µM [inhibitor, single point].

Q: `Cc1ccc(C2C(C#N)=C(N)Oc3cc4c(cc32)OCO4)cc1` (stereo not drawn) was tested. Which activity, negative = inhibition did it give?
A: The activity, negative = inhibition was inconclusive: -92% [inhibitor].

Q: Which Potency does the source give for `N#C/C(=C\c1c(N2CCCCCC2)nc2ccccn2c1=O)C(=O)NCc1ccco1` here?
A: Its Potency is inconclusive: 44.7 µM [inhibitor, partial curve].

Q: Which Potency does the source give for `S=c1[nH]c2cc3c(cc2[nH]1)OCCO3` here?
A: The Potency was active: 3.55 µM.

Q: `CC(OC(=O)c1ccccc1C(=O)N(C)C1CCCCC1)C(=O)NC1(C#N)CCCCC1` (stereo not drawn) was tested. Which Potency did it give?
A: The Potency was inconclusive: 3.98 µM [inhibitor, single point].

Q: For `CCOC(=O)c1ccc2[nH]c3c(c2c1)CCCC3C(=O)OCC` (stereo not drawn), which Potency is on record?
A: Its Potency is inconclusive: 44.7 µM [inhibitor, partial curve].

Q: `O=C(Cn1cncc1-c1ccc([N+](=O)[O-])cc1)Nc1ccccc1F` was tested. Which Potency did it give?
A: Its Potency is inconclusive: 28.2 µM [inhibitor, single point].

Q: Which Potency does the source give for `CC(NC(=O)CCCn1cc([N+](=O)[O-])cn1)c1ccccc1` (stereo not drawn) here?
A: The Potency was inconclusive: 56.2 µM [inhibitor, partial curve].

Q: `CC(=O)Nc1ccc(NC(=O)C(C)OC(=O)CCCN=C2NS(=O)(=O)c3ccccc32)cc1` (stereo not drawn) was tested. Which Potency did it give?
A: Its Potency is inconclusive: 89.1 µM [inhibitor, partial curve, poor fit].

Q: How did the Potency turn out when `Cc1nc(-c2ccc(S(=O)(=O)Nc3ccc(C#N)cc3)cc2)co1` was run?
A: The Potency was “inactive”.

Q: For `CN(C)S(=O)(=O)c1ccc(C(=O)OCc2nnc(-c3ccccc3)o2)cc1`, which Potency is on record?
A: The Potency was “inactive”.

Q: `Nc1nc(SCC(=O)NNc2c(Cl)cc(Cl)cc2Cl)n[nH]1` was tested. Which Potency did it give?
A: Its Potency is active: 10 µM.

Q: With `Cn1c(CNC(=O)CNC(=O)Cc2ccc(F)cc2)cc(=O)n(C)c1=O` as the compound, how does the Potency read?
A: Its Potency is “inactive”.

Q: Which Potency does the source give for `COc1cc2cc(CNc3ccccc3)c(=O)n(CC(=O)Nc3ccccc3)c2cc1OC` here?
A: The Potency was “inactive”.

Q: With `COc1cc(OC)cc(C(=O)NNC(=S)NC2CC2)c1` as the compound, how does the Potency read?
A: Its Potency is active: 56.2 µM.

Q: `COc1ccc(N2CCN(C(=O)c3cccc(-n4c(C)nc5cccnc54)c3)CC2)cc1` was tested. Which Potency did it give?
A: The Potency was inconclusive: 3.16 µM [inhibitor, single point].

Q: How did the Potency turn out when `COc1ccc([N+](=O)[O-])cc1C1NN=C(c2ccccc2O)S1` (stereo not drawn) was run?
A: The Potency was inconclusive: 8.91 µM [inhibitor, partial curve, poor fit].

Q: Which Potency does the source give for `C#CCOCCOCCOCCNc1nc(N2CCN(C(=O)Cn3cc(CCCCN)nn3)CC2)nc(N2CCN(C(=O)Cn3cc(CCCCN)nn3)CC2)n1` here?
A: The Potency was inconclusive: 89.1 µM [inhibitor, single point].

Q: With `C/C(CC(=O)Nc1ccc(Cl)cc1Cl)=N\NC(N)=S` as the compound, how does the activity, negative = inhibition read?
A: Its activity, negative = inhibition is inactive: 17.5% [at 0.501 µM].

Q: With `COc1ccc(-c2nn(-c3ccccc3)cc2CNC(=O)c2cccc([N+](=O)[O-])c2)cc1` as the compound, how does the Potency read?
A: The Potency was inconclusive: 35.5 µM [inhibitor, full curve, poor fit].

Q: With `COc1cccc2cc(C(=O)OCc3ccccc3)c(=O)oc12` as the compound, how does the Potency read?
A: The Potency was inconclusive: 56.2 µM [inhibitor, partial curve, poor fit].

Q: How did the Potency turn out when `OCCNCC(O)CN1c2ccccc2Sc2ccccc21` (stereo not drawn) was run?
A: The Potency was “inactive”.

Q: With `CCc1nc(SCC(=O)Nc2c(C)n(C)n(-c3ccccc3)c2=O)n[nH]1` as the compound, how does the Potency read?
A: Its Potency is inconclusive: 56.2 µM [inhibitor, partial curve, poor fit].

Q: How did the Potency turn out when `CC(C)n1cnc2c(N(C)c3ccccc3)nc(N(CCN(C)C)Cc3ccccc3)nc21` was run?
A: Its Potency is inconclusive: 11.2 µM [inhibitor, single point].

Q: `CCN1CCN(C(c2ccc(OC)cc2)c2c(O)cc(C)n(Cc3ccco3)c2=O)CC1` (stereo not drawn) was tested. Which Potency did it give?
A: Its Potency is inconclusive: 39.8 µM [inhibitor, single point].

Q: Which Potency does the source give for `COc1ccc(CNC(=O)c2ccc(NC(=O)N3CC4CCCN4c4ccccc43)cc2)cc1` (stereo not drawn) here?
A: Its Potency is active: 7.08 µM.

Q: `CCC(=O)Nc1cccc2ccccc12` was tested. Which Potency did it give?
A: Its Potency is “inactive”.

Q: For `CC(NCC1COc2ccccc2O1)C(=O)NCc1ccccc1` (stereo not drawn), which Potency is on record?
A: The Potency was active: 44.7 µM.

Q: With `COc1cc(/C=C(\C#N)C(=O)Nc2ccccn2)ccc1O` as the compound, how does the Potency read?
A: Its Potency is inconclusive: 20 µM [inhibitor, partial curve].

Q: Which Potency does the source give for `O=C(CSc1oc(-c2ccccc2)nc1S(=O)(=O)c1ccc(F)cc1)NCC1CCCO1` (stereo not drawn) here?
A: Its Potency is inconclusive: 25.1 µM [inhibitor, single point].

Q: How did the Potency turn out when `N#Cc1c(N2CCCC(O)C2)nc(N)c2c(N)nc3c(c12)CC(=O)N3C12CC3CC(CC(C3)C1)C2` (stereo not drawn) was run?
A: The Potency was inconclusive: 44.7 µM [inhibitor, partial curve, poor fit].

Q: With `Cn1c(Cn2c(=O)sc3ccccc32)nnc1SCc1ccccn1` as the compound, how does the Potency read?
A: Its Potency is “inactive”.

Q: For `CC(=O)N1CCN(Cc2nc3cc(NC(=O)COc4ccccc4)ccc3n2C)CC1`, which Potency is on record?
A: Its Potency is inconclusive: 44.7 µM [inhibitor, partial curve, poor fit].

Q: `O=c1cc(CN2CCN(c3cccc(C(F)(F)F)c3)CC2)nc2sccn12` was tested. Which Potency did it give?
A: Its Potency is inconclusive: 0.631 µM [inhibitor, full curve, poor fit].

Q: `CCN1CCCc2cc(CN(CCN3CCOCC3)C(=S)Nc3cccc(C)c3)ccc21` was tested. Which Potency did it give?
A: The Potency was inconclusive: 31.6 µM [inhibitor, single point].

Q: How did the Potency turn out when `O=C(Oc1coc(CSc2ncccn2)cc1=O)c1ccco1` was run?
A: Its Potency is “inactive”.

Q: Which Potency does the source give for `Cc1csc(NC(=O)c2c(-c3c(Cl)cccc3Cl)noc2C)n1` here?
A: Its Potency is inconclusive: 25.1 µM [inhibitor, single point].

Source: PubChem BioAssay AID504332 (National Center for Advancing Translational Sciences (NCATS), 2011)
